Assay results taken from PMC4336329 (PLoS ONE, 2015).
Screen size: about 310,000 compounds; about 14,000 (4.5%) showed an effect of 50% or more. The effect is printed as a negative number. The list shows a part of the results.

What follows are compounds tested against human ether-à-go-go-related gene (hERG) potassium channel (human, UniProt Q12809) (assay: primary screen, population patch clamp on CHO cells stably expressing hERG).
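Also: peak tail current of the secondary pulse compared with the same well before compound.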

Chain of human ether-à-go-go-related gene (hERG) potassium channel (Q12809 whole entry, looked up): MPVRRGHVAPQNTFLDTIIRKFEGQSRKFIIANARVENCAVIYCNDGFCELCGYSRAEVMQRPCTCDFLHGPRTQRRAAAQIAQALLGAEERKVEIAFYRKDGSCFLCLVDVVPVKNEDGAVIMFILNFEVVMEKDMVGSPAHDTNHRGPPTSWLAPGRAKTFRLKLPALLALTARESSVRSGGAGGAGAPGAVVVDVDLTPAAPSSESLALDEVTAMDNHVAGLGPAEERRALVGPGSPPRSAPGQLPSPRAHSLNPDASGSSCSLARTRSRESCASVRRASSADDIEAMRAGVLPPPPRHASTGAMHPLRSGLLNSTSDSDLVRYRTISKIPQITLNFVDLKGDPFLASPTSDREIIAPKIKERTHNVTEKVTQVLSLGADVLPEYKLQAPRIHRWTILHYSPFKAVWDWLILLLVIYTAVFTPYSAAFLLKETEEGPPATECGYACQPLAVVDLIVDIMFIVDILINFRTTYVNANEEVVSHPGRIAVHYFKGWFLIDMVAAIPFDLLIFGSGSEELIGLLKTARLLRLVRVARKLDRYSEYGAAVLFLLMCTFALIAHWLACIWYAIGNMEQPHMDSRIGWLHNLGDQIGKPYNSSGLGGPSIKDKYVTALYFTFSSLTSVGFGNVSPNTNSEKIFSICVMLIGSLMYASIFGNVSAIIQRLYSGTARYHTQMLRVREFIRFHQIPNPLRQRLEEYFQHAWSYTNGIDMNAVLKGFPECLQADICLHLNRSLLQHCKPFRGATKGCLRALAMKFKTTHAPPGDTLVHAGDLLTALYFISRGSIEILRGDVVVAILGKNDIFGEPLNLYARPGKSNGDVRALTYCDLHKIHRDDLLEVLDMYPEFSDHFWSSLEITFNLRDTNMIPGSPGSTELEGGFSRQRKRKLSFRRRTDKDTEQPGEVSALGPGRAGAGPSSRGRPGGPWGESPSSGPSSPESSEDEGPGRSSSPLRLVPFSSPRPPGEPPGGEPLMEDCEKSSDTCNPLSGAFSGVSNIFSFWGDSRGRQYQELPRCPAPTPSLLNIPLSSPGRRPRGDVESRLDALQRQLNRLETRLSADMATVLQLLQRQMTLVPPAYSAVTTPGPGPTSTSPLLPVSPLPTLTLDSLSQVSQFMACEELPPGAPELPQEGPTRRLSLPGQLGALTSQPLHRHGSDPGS

Compound	hERG current change (%, negative = inhibition) at 10uM [%]
Cc1ccc2nc3c(cc(C(=O)NCCc4ccccc4)c(=N)n3CCN3CCOCC3)c(=O)n2c1	-76.7
CCC(NC(=O)COc1cc2c(c3oc(=O)c(C)c(C)c13)CCC(C)(C)O2)C(=O)O (stereo not drawn)	6.16
Cc1cccc(-c2nc3ccccc3c(=O)n2NC(=O)c2ccc([N+](=O)[O-])c(C)c2)c1	14.5
COC(=O)c1ccc(NC(=O)CSC2=NCCN2)cc1.Cl	-5.04
CC(C)[C@H](NC(=O)c1ccco1)C(=O)OCC(=O)c1ccc2c(c1)NC(=O)CO2	-15.9
NS(=O)(=O)c1ccc(NC(=O)C2(c3ccccc3)CCCC2)cc1	10.3
Cc1ccc(NC(=O)CSCC(=O)O)c(C)c1	19
O=C(/C=C/c1ccccc1Cl)NCc1ccccc1	10.2
CC(C)=CCN1CCN(Cc2ccc(C#CC(C)(C)O)s2)CC1CCO (stereo not drawn)	-1.88
CCOc1ccccc1N1CCN(C(=O)c2cc3cc(OC)ccc3[nH]2)CC1	-3.66
Cc1cc(C)c(C#N)c(Oc2ccc(O)cc2)n1	-2.22
N#Cc1cccc(-n2nnnc2-c2ccc3c(c2)OCO3)c1	2.69
CN(CC(=O)Nc1ccccc1Cl)C(=O)COC(=O)C1CCN(c2ccc(C(F)(F)F)cn2)CC1	-29.8
COc1ccc(OC)c(CCNC(=O)c2sc3nc4n(c(=O)c3c2C)CCC4)c1	-22.8
CCOc1ccc(CN2CCNC(=O)C2CC(=O)OC)cc1 (stereo not drawn)	19.4
CCCCOC(=O)c1cc(Cl)c(O)c(OC)c1	9.65
O=C(c1noc2c1CCCC2)N1CCOCC1	11.2
CC(C)c1ccc(OCC(=O)N(Cc2ccco2)C2CCS(=O)(=O)C2)cc1 (stereo not drawn)	-79.4
O=C(CN1CCOCC1)Nc1ccc(Cl)cn1	20.6
Cc1ccc(CN2CC(C(=O)Nc3cccc(C)n3)CC2=O)cc1 (stereo not drawn)	-13.1
O=C(Nc1ccc(Cl)c([N+](=O)[O-])c1)C(NCCCO)c1ccccc1 (stereo not drawn)	-36.7
N#CC1=C(N)Oc2cc(N)ccc2C1c1ccc(F)cc1F (stereo not drawn)	-22.9
Cl.N=c1sccn1CC(=O)Nc1ccc([N+](=O)[O-])cc1Cl	-40.6

Compound	hERG current change (%, negative = inhibition) at 10uM [%]
COc1ccc(CCNC(=O)C2CC3Cn4c(nc5ccccc54)C3N2c2ccccc2)cc1 (stereo not drawn)	-7.57
Cc1cc(C)n(C(=O)CCCCCCCCC(=O)n2nc(C)cc2C)n1	13.6
COc1ccc(CNC(=O)c2cc(-c3cc(C)ccc3O)n[nH]2)cc1	34.1
Cc1cccc(-c2cc3nc4c(c(N5CCOCC5)n3n2)CCCC4)c1	-12.2
Cc1ccc(S(=O)(=O)N2CCOCC2)cc1NC(=O)c1cc(-c2ccccn2)nc2ccccc12	-46.7
O=C(Nc1cccc(Cl)c1)Nn1cnnc1	17
CCC(CC)C(=O)Nc1cc(NC(=O)C(CC)CC)cc(C(=O)O)c1	17.1
Cc1cc(C)c(C(=O)CSc2n[nH]c(=O)n2C2CC2)cc1C	-9.54
O=C1C=C(Nc2ccc(Cl)cc2)CC(c2ccccc2)C1 (stereo not drawn)	-8.07
CCOC(=O)C(C)Oc1c(C(=O)OC)sc2ncccc12 (stereo not drawn)	0.757
CCSc1nnc([C@@H]2CCCN2C(=O)OC(C)(C)C)o1	7.93
CC(=O)c1cccc(S(=O)(=O)NC2CCCCCC2)c1	-2.98
O=C(COC(=O)CCc1nc2ccccc2c(=O)[nH]1)NC1CCS(=O)(=O)C1 (stereo not drawn)	7.91
CCc1nnc(NC(=O)c2cc(-c3ccco3)nc3ccccc23)s1	12.8
CC(=O)c1nn(-c2ccc(Br)cc2)cc1C(=O)c1ccco1	-22.5
Cc1ccc(OCCOC(=O)c2cc(S(=O)(=O)N3CCCCC3)ccc2N2CCOCC2)cc1	-9.24
CC(C)(C)C1CCc2c(sc(NC(=O)c3ccncc3)c2C(N)=O)C1 (stereo not drawn)	20
CC(=O)Nc1ccc(S(=O)(=O)N2CCCC2)cc1	12.1
COc1ccc(/C=C2\SC(=O)N(CC(=O)NNC(=O)c3ccccc3O)C2=O)cc1	9.2
Cc1cnc(SCc2cnc(C)nc2N)nc1	3.26
O=C(NCc1ccncc1)C(=O)N/N=C/c1ccccn1	16.3
CC1(C)N(OCc2ccccc2)C(=O)C(=O)N(OCc2ccccc2)C1(C)C	-6.11
